Test results as given in the RNAGym collection of RNA variant scans (doi:10.7554/elife.90254).
Read counts are not given, so values of variants with three or more changes are uncertain.

B1: LINE1-mini (parent)
chain: GGCAGAGCUCAACACAGCGUGGCAAAGUGGCUGUGGCUAGACUGCC

Variants of: B1
Test: self-cleavage, relative activity (ratio to wild type); higher = more cleavage; in vitro, sequencing; the parent is a self-cleaving ribozyme

Variant	self-cleavage
G19U U28A C45A	0.9
C13A G29C G35C U38C C42U	0.02
C18A G30U C37G C42U	0.06
A4U A25G G30A G33U C37A C42G C46G	0.1
C10U A25C C42A	0.04
U9A G17C C18A G29U U32C	0.1
A11U G35C C37U U38G	0
C8G C18A G21U A25G C31G C45A	0.01
G7U C13A G27U	0.08
G7A C10G A14U G27U	0.01
C10A A11G C15G C23A U38A	0.02
C15U U34G G44A	0.03
C10U C15U A25U U38A	0.05
C13A G17A U32C	0.02
C3U A4G C8U C31G C46G	0.14
G1U C10A G19A C46U	0.02
C3U G7U C18G	0.03
G36A C37A U38C A39G	0.06
U9A G17A C31U U32G	0.02
C13U G40C C42G	0.05
A6G U9C A25C	0.05
U32C U34G U38C	0.04
A6G G22U A24C A25G	0.11
A6U A16C A25U G27C	0.09

Variant	self-cleavage
G5U A16G A39C	0.01
G1C C23A G29U	0.41
C10A U28A G35C	0.01
A4G G7C A12U C45A	0.06
G1U C15U C23A G29A C31A C37U	0.01
C8G G27C U28A	0.02
A4U C23G G29U U32G	0.01
G1C A12U G17A A39U	0.01
G5A G35C G36U	0.01
C23U U32G C45G	0.15
G5A A14C G30U C45U	1.96
G5A C15U G17A G35C	0.03
A12U U20G G27A C31U	0.11
A11C A25G G27A C31A A39G	0
C3A A12G A16U G40U	0.06
G1A C8G G19A A25G U32C	0.18
G17C U20A G29A	0.08
A4C A14G C15A C37A	0.03
A4G G7U G27U U38C G40U	0.16
G1C C15G A39G	0.02
C10G A11G G19U G29U	0.01
A4C U32G C45U	0.06
G1A A4G G5A G7U C18U U28A C31G	0.17
A4U C10U G27C G30U	0.04

Variant	self-cleavage
A24U G29A C37A C45U	0.2
A26U C31A C42G G44U	0.02
G1C G5C G35C C37U	0
G36C G40A G44A	0.07
G19C U20A G29A G36U U38A G40A C42U	0.11
A11C G27C G36U C37G C45U	0
G5C G40A C46U	0.18
G7U G19A C23A	0.05
C3U A14C G19A C42G	0.04
G5U G21U G22C	0.38
G1A A12C C23G C31A G35U C42U U43G	0
G21U C23A U38A	0.57
U9G A16G G21A C42U	0.13
A4G A6U G7A G19U A41C C45A	0.07
C10G G19U C37U C46U	0.01
G1U C13U U38A	0.05
G5U C15G C18G C42U	0.01
A14G G22A A25G U34A	0.03
G7C C45U C46U	0.05
C31G G33U U38C G40C G44C	0.05
G7U G19C C37A G40U	0.01
C3A C15A C37U	0.59
C23G U32G C37G A39U G40A	0.02
A11G C18A C23A U28A U43C	0

Variant	self-cleavage
G7C A25C U38G C46U	0.01
G5U C10U A14U	0.03
A16G G22C A24G U28C G35A G44C	0.03
U32G G33A G44A	0.12
G2A G5A C10A G29U C42U	0.05
C10U G40U C42U C45A	0.02
G21C C23A G36U G40U C46G	0.94
G21A A25G G33A	0.06
G5A A6G G22C G40A C42U	0.03
A4G G7U G19C A25G U34G U38G	0
G2C C13G U20G A39C G40A	0.02
C8U A16G G22U	0.51
G5U G7U C10U C15A G30A U38C A41U	0.14
C10A A12C A14C A26U C46U	0.03
G5C G35C C46U	0.05
C3U G5C A11U C13A C23U	0.02
C13A G22A U28G C37A G40U C46U	0.18
G5A G7C A11G G40U	0.05
C3A G7A G19U G27C G33A	0.06
G5A G7C G40C	0.03
A6C A16C G17C G22U G44A	0.03
A6C C10A C15A A16U	0.02
A12G U20C C45U	0.02
G2U G5U A16G C18G G29A C42G	0.03

Variant	self-cleavage
A12U A24C U38A	0.03
G1A C10A U34C	0
C10G A26G G30A	0.08
G17A U20C U28G	0.04
G2C G30U U32G	0.06
G19U G33C G44C	0.06
G21U G36A C37U C45U	0.08
G5C G35U C42U	0.1
G5U C15A G19U G27C	0.07
G1U G7C C10G	0.01
C3G G17A G29C C37A A39U G40C	0.11
G1U G19A G27U C46U	0.26
A25C G27A G36U C45G	0.02
C8A C13A G27U U34G C37A	0.15
G1A A12C C15U U32A	0.03
A12U U28A G30U	0.58
G5U G40C C46A	0.01
U9A G27U U28G	0.08
A12U G21U U34C G36U C46A	0.02
G2U C3U G5U C10A G40U G44U	0.02
C10G G19U U28G A39U	0.17
A4C U9G C18A G29C G40U C45G	0.03
U9A G17C C31G C45G	0.09
G21U G33U U38A	0.18

Variant	self-cleavage
C13U G17C A26U	0.02
C15A G33U G44C	0.06
G1C G33U U38A	0.01
A6G A12G A39G C45A	0.01
A12C C15A G29C G30C	0.03
C3A U9C C37U	0.04
G17C C23U G27U C46U	2.6
A6G A14U A24G	0.02
G7A C13U C15G C31A G36A A39U	0.05
G22U G35U C45U	0.07
A16C C18G A26C	0.04
C13A G40U C46A	0.03
G7A G30A G44C C46G	1.06
G1U C10U G22U A24U C46U	0.11
C3U A25C C37U G44A	0.07
G2A G33A A41C	0.09
G7U C13A G21A G27A C37G	0.01
A11U G22U U43A C46G	0.01
A12C G21A G35U G36U	0.01
A14C G44U C45U	0.03
G5C G7A C18A G19U G30C C37U	0.06
U28A G36A A41C	0.02
C8A G27U C37A	0.09
G2U C3U G5A U38A	0.08

Variant	self-cleavage
C10A G21U A41C	0.01
G7A G21A G29C	0.05
G1A U9C C10A C37U G44A	0.05
C3A G5A G21U	0.42
C3A U38G G40U	0.03
G5A C15G G27A U32G	0.02
U9A U20C G21A G30U C37U	0.03
G1A C8U C10G C13G G30C	0.1
A16U U28A G29U G36U	0.09
G2U C3G A6U U9G C13U A14G	0.12
G21U A26U G33U	0.47
A12U A16U U20G	0.03
A16G G19A G36A U38A A41U	0.52
C8G A16G G33A C46U	0.03
G1A C8G A25U G27U U34A	0.07
G5U G30C C31G	0.05
A4C C8A A12G G35U	0.06
A24G G27C G30U C31G G35C	0
G1U G21U C46A	0.19
G22A G27C C31A C46U	0.04
C8G C23A C42G	0.03
A24C U32G C37U	0.03
C18U G22A A24G G40C C42G	0.02
G2U C10G G33U G36C A39U	0

Variant	self-cleavage
C8A U9C C18U	0.05
A12G A16U U43A	0.01
G2U C10G G21C A39C	0
G36C C37U C42G	0.01
G22U C31G G40U U43C	0.47
G21U G27C U28G	2.34
U9A G27U A39G	0.03
C8A C13U G21A U34A G36U	0.16
G5A G21C C23A C37A	0.01
G5U C15A G30U G33U U34G U38C C45U	0.01
C31A G40U C45U	0.03
G1U C3A C15A G27C G35C	0.28
A4G C42U C46U	0.08
A6G U20C C31U C45U	0.02
U9C C13A U34C C37G	0.01
A14C G19C G21C	0.01
G2U C10U A26C C31U U32A	0.02
G2A C13G G21A G29U	0.44
A6G G7U G17C G21C	0.03
A11U A41U C45G	0.05
G17A C18U G27U	0.03
G2C C13G G17A	0.06
G7U A16G G22U G33A G44A	0.03
G5U C10A A11C U38A	0.03

Variant	self-cleavage
C23A A25U G35A G36C	0.56
G5U A11C U20A	0.01
A11G G27C U28C	0.01
G1A C15A U28A U32A G36U C42U	0.02
G21U G27U A39U	0.78
A4U A14C A24G G35U C46A	0.01
U9C U32G G35C	0.02
G19A U28A G30A C45G	0.07
A4C C10U G30C U32G	0.01
G2C A4U A24C	0.04
A6U G17C G40C	0.04
C3G C8A C10G G36C	0.02
C10A C13G C15U C46A	0.01
A14G A16G G33U	0.01
A4U A6U A12G C31G G40U U43A	0.01
G5C A11U A24U	0.02
C13U G19U U20C G21C A26U G33A C46A	0.04
G5A U34A G35A C37A A41C	0.01
G1U A4G G35A	0.2
C8U C10A A39U	0.03
A12G C15A G19A G36C A41G	0.01
A4G U20G C31A U38G	0
C3U G27U G36C A39C A41G	0.38
G17U G40U C46A	0.03

Variant	self-cleavage
G2C A4C G5C G29A U32G	0.05
C10G A16U G22A G30A U34A	0.01
A6C G33C C42A	0.02
C8G C15G U28C G30A U32G G33U G35A	0.07
A26G U32A U34A G35C	0
C8G C15G G27C C37U	0.03
C13U C18G G19U U20C A24G U28C	0.01
A6C C13A G27A	0.14
A4U C23G U28A G44A	0.17
G7U C13G A24C U38G	0.02
A4U G5U U9G G35U	0.04
A16G G19U A25U C31A A39G	0.01
A4G C18A G22C	0.42
C3U G5A G7A	1.06
C10A G30C G33C C37A	0.02
G7U U38A C42A	0.02
G2C A16C U20G G44U	0.02
C13A G19A G21U	0.07
C13U C31U C37U U38C G44A	0.01
G5U A16U U28A C42U	0.04
C3A A24C A39U	0.13
G27A U28A G36U	0.05
C3G U9A G22A C46G	1.42
G2A G7U G40U	0.46

Variant	self-cleavage
C3A G17U G36C	0.39
A14C U43A C46U	0.02
C8A A11U C13G A14U G40C	0.02
G17A U20C A24U G35U G44U	0.01
G21U G22U C42G	0.02
U38C A39U G40C	0.02
G22C C31G U32G	0.05
U32A A39C G40A	0.01
C8U A11C G22U A26U U38A	0.01
C3A A16G A39U G40A	0
A16C C18U G30A C46A	0.11
C10U A26C C46G	0.62
A6G G29A U38C G44U	0.02
G5A C13U A24U G40A	0.05
G19U A39G C46U	0.04
A26U G33U G36C G40C	0.01
A12U A41C C45U	0.05
G2C C3A G7C A16U C23A U28C C37G	0.42
G1A G27A G29A	0.47
G1U A6U C8G G19U G21U U28G	0.04
